{"source": "the supplement of paper PMC3334620", "note": "Whole data set: some 33,000 sequences, median “E-score (-0.5 to 0.5)” near -0.021, cut for the highest 2% near 0.32. The list shows a part of the results."}
{"molecular_target": "T1, Zap1 (UniProt P47043)", "T1 sequence": "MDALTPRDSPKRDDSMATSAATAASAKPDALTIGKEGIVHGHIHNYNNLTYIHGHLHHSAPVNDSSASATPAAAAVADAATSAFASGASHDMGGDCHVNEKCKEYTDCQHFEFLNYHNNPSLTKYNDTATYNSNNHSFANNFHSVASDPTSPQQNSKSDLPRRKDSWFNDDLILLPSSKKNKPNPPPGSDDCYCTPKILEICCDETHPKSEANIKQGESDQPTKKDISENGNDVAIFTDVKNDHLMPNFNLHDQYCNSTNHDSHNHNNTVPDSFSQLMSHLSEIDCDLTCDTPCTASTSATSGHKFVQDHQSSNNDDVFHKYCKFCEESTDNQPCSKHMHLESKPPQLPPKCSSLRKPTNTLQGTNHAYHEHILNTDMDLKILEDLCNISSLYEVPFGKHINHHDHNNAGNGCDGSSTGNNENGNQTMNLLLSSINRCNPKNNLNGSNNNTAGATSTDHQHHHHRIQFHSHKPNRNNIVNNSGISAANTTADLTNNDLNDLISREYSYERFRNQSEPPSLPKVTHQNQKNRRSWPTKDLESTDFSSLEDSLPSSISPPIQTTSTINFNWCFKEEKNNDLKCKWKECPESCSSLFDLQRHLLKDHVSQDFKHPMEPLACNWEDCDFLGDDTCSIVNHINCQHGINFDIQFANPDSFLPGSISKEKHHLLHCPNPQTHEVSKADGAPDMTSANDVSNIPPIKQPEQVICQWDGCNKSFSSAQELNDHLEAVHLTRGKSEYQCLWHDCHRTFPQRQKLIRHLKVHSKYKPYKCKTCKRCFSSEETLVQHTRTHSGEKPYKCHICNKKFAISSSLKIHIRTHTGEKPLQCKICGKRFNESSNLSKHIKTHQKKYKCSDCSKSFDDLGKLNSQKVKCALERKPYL", "experiment": "PBM E-score (8-mer binding enrichment) (E-score (-0.5 to 0.5)); higher = stronger / more preferred TF binding; most listed sequences are background and not binding sites", "conditions": "protein concentration: 200 nM; construct: GST-full length", "method_in_brief": "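The E-score, a modified Wilcoxon-Mann-Whitney statistic, was computed by the Universal PBM Analysis Suite for every ungapped eight-base word pooled with its reverse complement. Scans behind it were normalised with masliner after bound GST-tagged yeast transcription factors were detected with fluorescent anti-GST. The proteins, at about 100-200 nM, had been applied to universal all-10-mer Agilent arrays made double-stranded by primer extension.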"}
{"sequence": "CCCCCCTA", "PBM E-score": -0.413}
{"sequence": "CGCATATA", "PBM E-score": -0.056}
{"sequence": "GATATTCC", "PBM E-score": 0.0278}
{"sequence": "GGCGCGTA", "PBM E-score": -0.119}
{"sequence": "TATGCACA", "PBM E-score": 0.0476}
{"sequence": "TGGGATAA", "PBM E-score": -0.111}
{"sequence": "ACTTTACC", "PBM E-score": 0.06}
{"sequence": "TCCTAGGA", "PBM E-score": 0.0315}
{"sequence": "GAGTCGAA", "PBM E-score": 0.0323}
{"sequence": "ATGATTCC", "PBM E-score": 0.0354}
{"sequence": "CTTGACCC", "PBM E-score": 0.311}
{"sequence": "AGATCAGG", "PBM E-score": -0.0381}
{"sequence": "GTTCTATA", "PBM E-score": 0.142}
{"sequence": "CTTCATGC", "PBM E-score": -0.146}
{"sequence": "AGCGTCAC", "PBM E-score": -0.21}
{"sequence": "AATGACAT", "PBM E-score": -0.0822}
{"sequence": "TAAAGTAA", "PBM E-score": 0.00117}
{"sequence": "ACCTCAAG", "PBM E-score": 0.251}
{"sequence": "CATTGAAC", "PBM E-score": 0.00729}
{"sequence": "ACATCGGT", "PBM E-score": -0.00075}
{"sequence": "AAGAGCAA", "PBM E-score": -0.126}
{"sequence": "CCCATAGA", "PBM E-score": 0.102}
{"sequence": "GTGCGCAC", "PBM E-score": 0.311}
{"sequence": "CGCTAAAA", "PBM E-score": 0.0123}
{"sequence": "ACCGCCAG", "PBM E-score": 0.0908}
{"sequence": "GAAAGTAA", "PBM E-score": 0.0294}
{"sequence": "AAGTGACG", "PBM E-score": -0.021}
{"sequence": "CCGGATAG", "PBM E-score": -0.0246}
{"sequence": "ACCAAAAG", "PBM E-score": 0.27}
{"sequence": "GGGGCATA", "PBM E-score": -0.156}
{"sequence": "AATGCAGC", "PBM E-score": -0.344}
{"sequence": "ACCGAGTG", "PBM E-score": -0.0921}
{"sequence": "TCATAAGA", "PBM E-score": 0.00189}
{"sequence": "TACATCCA", "PBM E-score": 0.133}
{"sequence": "CGCGGTAC", "PBM E-score": 0.305}
{"sequence": "AGGCTGCG", "PBM E-score": -0.0962}
{"sequence": "CCTGGGCC", "PBM E-score": 0.0947}
{"sequence": "TAATTTCA", "PBM E-score": 0.3}
{"sequence": "CCAGTAAA", "PBM E-score": 0.129}
{"sequence": "TCATCCCA", "PBM E-score": 0.073}
{"sequence": "AGTATTCA", "PBM E-score": 0.154}
{"sequence": "GACTCTAA", "PBM E-score": -0.0305}
{"sequence": "GTGGAAGA", "PBM E-score": -0.0706}
{"sequence": "CGACCGGA", "PBM E-score": -0.192}
{"sequence": "CCTTTAAG", "PBM E-score": 0.237}
{"sequence": "ACCGGCGG", "PBM E-score": 0.0545}
{"sequence": "TATTGAGA", "PBM E-score": 0.159}
{"sequence": "CGGCCGAC", "PBM E-score": 0.0338}
{"sequence": "ACAGAGAA", "PBM E-score": -0.0562}
{"sequence": "CTAGGTGC", "PBM E-score": -0.243}
{"sequence": "GTAAGTCA", "PBM E-score": -0.113}
{"sequence": "ACTGGCGG", "PBM E-score": -0.0316}
{"sequence": "CGAAAAAG", "PBM E-score": 0.18}
{"sequence": "ACGCCCGA", "PBM E-score": -0.136}
{"sequence": "ACTTCCCA", "PBM E-score": 0.00014}
{"sequence": "CCTGTAAG", "PBM E-score": 0.0782}
{"sequence": "AAAATTTA", "PBM E-score": 0.115}
{"sequence": "GCATCAAC", "PBM E-score": -0.082}
{"sequence": "AAAGAAGG", "PBM E-score": 0.0804}
{"sequence": "AGCATTTG", "PBM E-score": -0.00877}
{"sequence": "ATAATGTC", "PBM E-score": -0.102}
{"sequence": "GCGAAAGC", "PBM E-score": -0.142}
{"sequence": "AGTACAGG", "PBM E-score": 0.0139}
{"sequence": "CGGCTGGC", "PBM E-score": -0.196}
{"sequence": "CCGTAACA", "PBM E-score": 0.0988}
{"sequence": "ATGCACAT", "PBM E-score": -0.0287}
{"sequence": "ACTTCCAA", "PBM E-score": 0.0299}
{"sequence": "ATGTAAGA", "PBM E-score": 0.0542}
{"sequence": "ATTTGTCA", "PBM E-score": -0.0752}
{"sequence": "ACACGACG", "PBM E-score": -0.132}
{"sequence": "AATCAAGT", "PBM E-score": 0.0375}
{"sequence": "ACTAGAAT", "PBM E-score": 0.0418}
{"sequence": "AACTATGT", "PBM E-score": -0.277}
{"sequence": "ACCAGGGA", "PBM E-score": -0.00163}
{"sequence": "CCGGGGAG", "PBM E-score": 0.0491}
{"sequence": "ACCACCTG", "PBM E-score": 0.167}
{"sequence": "GCAGTCAC", "PBM E-score": -0.0144}
{"sequence": "GTGACTCA", "PBM E-score": -0.103}
{"sequence": "ACGCGCAA", "PBM E-score": 0.154}
{"sequence": "CAAACCGC", "PBM E-score": 0.0621}
{"sequence": "GATAAAGA", "PBM E-score": -0.19}
{"sequence": "ACAGATTG", "PBM E-score": -0.157}
{"sequence": "CGATGCCA", "PBM E-score": -0.148}
{"sequence": "CACTCATA", "PBM E-score": 0.00233}
{"sequence": "AATTGTTG", "PBM E-score": -0.00694}
{"sequence": "AAGGGCTC", "PBM E-score": -0.328}
